Experimental data published in the RNAGym collection of RNA variant scans (doi:10.7554/elife.90254).
The source gives no read counts; variants with many changes may rest on few reads.

B1: OR4K15 (parent)
chain: GUUAACGGUCAUAGGCCAUGGAAACUAGGAGCACCAUUUCGCUGCCAGUGAAGAAAUGAACAAAGAAAAUCUGGGCCAGGCAGGCAUCAAAAGAAAUAGUCUUGCGCUCAACCAGAAAGUCUGUAAUCAUUUUAAGGGUA

Variants of: B1
Test: self-cleavage, relative activity (ratio to wild type); higher = more cleavage; in vitro, sequencing; the parent is a self-cleaving ribozyme

For A36U A62U A67G A90G, which self-cleavage is on record?
Its self-cleavage is 1.11.

For C10U A30G G75A A95G A135C, which self-cleavage is on record?
The self-cleavage was 0.05.

For A63U U72C U124C, which self-cleavage is on record?
The self-cleavage was 0.05.

Which self-cleavage does the source give for U100C U103C U120C U122A here?
The self-cleavage was 1.66.

With A11U A91G U108C as the variant, how does the self-cleavage read?
The self-cleavage was 0.01.

Which self-cleavage does the source give for A11G A52U A54G A90G A96G U102C A111G here?
The self-cleavage was 0.01.

With A22G A24G A114G as the variant, how does the self-cleavage read?
The self-cleavage was 0.73.

With U39A U57C A118G as the variant, how does the self-cleavage read?
The self-cleavage was 1.46.

For U12C U132C A140G, which self-cleavage is on record?
Its self-cleavage is 1.32.

For A22G U43C A69C, which self-cleavage is on record?
Its self-cleavage is 1.2.

For U9A A24G U70C A116U, which self-cleavage is on record?
Its self-cleavage is 0.36.

Which self-cleavage does the source give for A11G A13G A24U A30G here?
Its self-cleavage is 0.71.

For A23G U87C A126G, which self-cleavage is on record?
The self-cleavage was 0.23.

For A22G A67G A126G, which self-cleavage is on record?
The self-cleavage was 1.5.

For A24G U38A A94G A98U, which self-cleavage is on record?
Its self-cleavage is 2.17.

Which self-cleavage does the source give for U39C A60G C112A A126G here?
The self-cleavage was 0.

For A52G A54G A68G G73U A125G, which self-cleavage is on record?
Its self-cleavage is 0.04.

With A52G A62U A89G U108C as the variant, how does the self-cleavage read?
Its self-cleavage is 0.03.

With A92G C105U U122A U131C as the variant, how does the self-cleavage read?
The self-cleavage was 0.02.

Which self-cleavage does the source give for G41A A116G A135G here?
The self-cleavage was 0.32.

With A66G A69U A110G as the variant, how does the self-cleavage read?
Its self-cleavage is 0.33.

For A11U U37G U43A A51G U102C, which self-cleavage is on record?
Its self-cleavage is 1.78.

Which self-cleavage does the source give for G75A A116U A129G here?
Its self-cleavage is 0.01.

With A51G A59G A68G as the variant, how does the self-cleavage read?
The self-cleavage was 1.51.

With A5G A66G C105G as the variant, how does the self-cleavage read?
The self-cleavage was 0.13.

Which self-cleavage does the source give for U49C U57C A69G A96G here?
Its self-cleavage is 0.74.

Which self-cleavage does the source give for U9C A47G A56G A62U A129C here?
Its self-cleavage is 0.48.

With U2C U102C U132C as the variant, how does the self-cleavage read?
Its self-cleavage is 1.91.

Which self-cleavage does the source give for G1A A36U U130C here?
The self-cleavage was 1.73.

Which self-cleavage does the source give for A23G A54G A118G here?
The self-cleavage was 0.86.

With G75A A91G U122C as the variant, how does the self-cleavage read?
Its self-cleavage is 0.13.

Which self-cleavage does the source give for A11C U37C A78G here?
The self-cleavage was 0.23.

For A59G U72A U108C C121U, which self-cleavage is on record?
Its self-cleavage is 0.02.

With A30U A86G C105G U132C as the variant, how does the self-cleavage read?
Its self-cleavage is 0.03.

Which self-cleavage does the source give for C16A A90G G106A here?
The self-cleavage was 0.05.

For A22U A23G A118G, which self-cleavage is on record?
Its self-cleavage is 0.91.

For G74A A95G U103A, which self-cleavage is on record?
The self-cleavage was 0.12.

With A11G A96G A129G as the variant, how does the self-cleavage read?
The self-cleavage was 0.34.

For A23G A98U U120C, which self-cleavage is on record?
Its self-cleavage is 2.07.

Which self-cleavage does the source give for A60U A68G U97C here?
Its self-cleavage is 1.43.

Which self-cleavage does the source give for U12C A22U A68G U100A here?
The self-cleavage was 0.8.

For A24G A96G A116G, which self-cleavage is on record?
The self-cleavage was 0.86.

Which self-cleavage does the source give for U39A A52G A111G here?
The self-cleavage was 0.02.

With A62G A95U U108A A134G as the variant, how does the self-cleavage read?
Its self-cleavage is 0.

With A52G A82G G99A as the variant, how does the self-cleavage read?
The self-cleavage was 0.08.

Which self-cleavage does the source give for G31A A60U A90G here?
Its self-cleavage is 1.88.

For A5G A13U U39C C42A, which self-cleavage is on record?
The self-cleavage was 0.57.

With U37C U87C A96G A126G as the variant, how does the self-cleavage read?
Its self-cleavage is 1.99.

With U19A A30U U108C A118G as the variant, how does the self-cleavage read?
Its self-cleavage is 0.01.

Which self-cleavage does the source give for U9C A24G A33G A82U here?
Its self-cleavage is 0.21.

Which self-cleavage does the source give for U43C A55G U100C U108C A118G here?
Its self-cleavage is 0.

For A30G A59G A64G, which self-cleavage is on record?
Its self-cleavage is 1.25.

For A13U A22U U70A, which self-cleavage is on record?
The self-cleavage was 0.56.

Which self-cleavage does the source give for A33G A68G U127C here?
The self-cleavage was 0.32.

Which self-cleavage does the source give for U9C A47G A60U A78G U108A here?
The self-cleavage was 0.02.

With A22G A52G U108C A114C as the variant, how does the self-cleavage read?
Its self-cleavage is 0.02.

Which self-cleavage does the source give for A30G U43C A89U U100C U127A here?
The self-cleavage was 2.17.

For A23G A63G A94G, which self-cleavage is on record?
The self-cleavage was 1.72.

Which self-cleavage does the source give for U2C U12A A95G here?
The self-cleavage was 1.57.

For A24G U49A U87C, which self-cleavage is on record?
Its self-cleavage is 1.01.

With A47U A55G A67G G138U as the variant, how does the self-cleavage read?
Its self-cleavage is 0.87.

Which self-cleavage does the source give for A62U A92G A110C A116U here?
The self-cleavage was 0.09.

With U2A A22U C40U A51G as the variant, how does the self-cleavage read?
Its self-cleavage is 0.93.

Which self-cleavage does the source give for A60G A62G U120C here?
Its self-cleavage is 0.48.

Which self-cleavage does the source give for U3A A13G U72A A91G here?
The self-cleavage was 0.31.

Which self-cleavage does the source give for U43C A51G U122C here?
Its self-cleavage is 0.6.

With G1A A91G U102A U108C U120C A126G as the variant, how does the self-cleavage read?
Its self-cleavage is 0.

With A78G U127C G136U as the variant, how does the self-cleavage read?
Its self-cleavage is 0.25.

Which self-cleavage does the source give for U9C A30G G74A here?
Its self-cleavage is 0.39.

For A64G A69G U70C A118G, which self-cleavage is on record?
Its self-cleavage is 0.2.

Which self-cleavage does the source give for A23G A47G U97A here?
Its self-cleavage is 0.99.

Which self-cleavage does the source give for A22U A90G A91G here?
The self-cleavage was 0.61.

For A67G A78U A98G A118G, which self-cleavage is on record?
Its self-cleavage is 0.

With U2C G29A A95G U97C A98G as the variant, how does the self-cleavage read?
The self-cleavage was 0.8.

For G8U A92G U131C, which self-cleavage is on record?
The self-cleavage was 2.5.

Which self-cleavage does the source give for U72A U97G A111G here?
Its self-cleavage is 0.01.

With G41A G50A A62G U124A as the variant, how does the self-cleavage read?
The self-cleavage was 0.96.

For U3C A51U U127C, which self-cleavage is on record?
The self-cleavage was 0.96.

With U2C A24G A118G as the variant, how does the self-cleavage read?
Its self-cleavage is 0.15.

Which self-cleavage does the source give for G8U U26C U43C A63G U87A A95G U131C here?
The self-cleavage was 0.67.

With A22G A54G A111G U131C as the variant, how does the self-cleavage read?
Its self-cleavage is 0.02.

Which self-cleavage does the source give for A22G A68G A92G here?
Its self-cleavage is 0.47.

With U3C U19C U38C as the variant, how does the self-cleavage read?
The self-cleavage was 1.51.
